Results published in PubChem BioAssay AID488969 (Vanderbilt High Throughput Screening Facility, 2010).
In all, about 110,000 compounds were measured (“z-score”: median about -0.1, highest 2% from about 2 on). The list shows a part of the results. Active and inactive are the calls of the source.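 The calls were made as follows: active = z-score in the third read window above 3 or below -3; inactive = the rest.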

These molecules were tested against Metabotropic glutamate receptor 8 (Rattus norvegicus) (UniProt P70579) (assay: mGluR8 Gi/Go-coupled signaling modulation – cell-based, rat, thallium flux, HTS, primary screen (AID 488969)). Conditions: HEK293 rat mGluR8, GIRK (G protein-gated inwardly rectifying potassium channel) thallium flux, FluoZin2; at 10 µM; stronger effect = higher value; submaximal glutamate (EC20) added with thallium.
Chain of UniProt P70579 (P70579 whole entry, looked up): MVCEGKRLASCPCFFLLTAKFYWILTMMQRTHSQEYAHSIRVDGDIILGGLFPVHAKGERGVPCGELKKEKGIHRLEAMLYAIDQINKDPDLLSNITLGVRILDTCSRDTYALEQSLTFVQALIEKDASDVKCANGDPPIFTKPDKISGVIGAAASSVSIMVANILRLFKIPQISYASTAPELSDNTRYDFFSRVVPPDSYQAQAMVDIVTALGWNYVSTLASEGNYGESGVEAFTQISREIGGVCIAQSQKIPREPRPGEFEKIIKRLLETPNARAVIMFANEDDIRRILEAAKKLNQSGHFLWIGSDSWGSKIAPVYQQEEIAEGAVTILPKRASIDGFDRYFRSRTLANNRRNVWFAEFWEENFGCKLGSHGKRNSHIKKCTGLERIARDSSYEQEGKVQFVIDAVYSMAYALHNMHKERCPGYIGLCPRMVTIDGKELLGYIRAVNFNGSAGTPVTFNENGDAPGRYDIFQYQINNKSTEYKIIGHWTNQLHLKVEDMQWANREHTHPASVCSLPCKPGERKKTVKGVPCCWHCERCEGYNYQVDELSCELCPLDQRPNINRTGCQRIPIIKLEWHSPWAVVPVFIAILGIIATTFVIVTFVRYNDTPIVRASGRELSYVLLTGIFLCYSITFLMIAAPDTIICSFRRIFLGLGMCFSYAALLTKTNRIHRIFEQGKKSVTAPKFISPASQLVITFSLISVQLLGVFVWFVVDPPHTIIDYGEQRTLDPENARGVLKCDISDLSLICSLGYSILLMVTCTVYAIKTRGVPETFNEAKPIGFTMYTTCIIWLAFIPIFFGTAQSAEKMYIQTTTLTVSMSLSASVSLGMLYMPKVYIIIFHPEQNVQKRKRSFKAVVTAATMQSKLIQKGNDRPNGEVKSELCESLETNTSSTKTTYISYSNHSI
With `CCc1nc(SCC(=O)Nc2c(C)n(C)n(-c3ccccc3)c2=O)n[nH]1` the z-score was -0.584.
Work on `COc1ccc(NS(=O)(=O)c2cccc(-c3nnc4n3CCCCC4)c2)cc1` yielded a z-score of 1.
For `N#CCCn1nnc(-c2ccccc2F)n1`, the z-score was -0.226.
For `CCN(CC)S(=O)(=O)c1ccc(N2CCOCC2)c(NC(=O)Cc2cccc3ccccc23)c1`, the z-score was -0.118.
For `Cc1nn(-c2ccccc2)c(Cl)c1C(=O)Nc1c(C)n(C)n(-c2ccccc2)c1=O`, the z-score was 0.11.
With `Cn1c(SCC#N)nnc1-c1cnccn1` the z-score was 0.549.
`O=C(CSc1oc(-c2ccccc2)nc1S(=O)(=O)c1ccc(F)cc1)NCC1CCCO1` (stereo not given) was tested, and the z-score was 0.151.
In the case of `Cn1c(Cn2c(=O)sc3ccccc32)nnc1SCc1ccccn1`, the z-score is reported as 0.333.
For `N#Cc1c(N2CCCC(O)C2)nc(N)c2c(N)nc3c(c12)CC(=O)N3C12CC3CC(CC(C3)C1)C2` (stereo not given), the z-score was -0.293.
In the case of `COc1ccc(C2CC(c3ccc(C)cc3)Nc3nc(N)nn32)cc1` (stereo not given), the z-score is reported as -0.0533.
With `O=C(COC(=O)CSc1ccc2ccccc2c1)NC1CC1` the z-score was -0.088.
`CCOc1ccccc1C(=O)NC(CO)C(=O)O` (stereo not given) was tested, and the z-score was -0.109.
Molecule `Cn1c(SCc2ccc(C(=O)Nc3nccs3)cc2)nnc1-c1ccccc1` has a z-score of -0.332.
`CCNC(=O)C/C(C)=N/NC(=O)C12CC3CC(CC(C3)C1)C2` was tested, and the z-score was -0.0248.
`Cc1csc(NC(=O)c2c(-c3c(Cl)cccc3Cl)noc2C)n1` showed a z-score of 0.117.
With `COc1ccc(-n2c(O)c(/C=N/n3cnnc3)c3ccccc3c2=O)cc1` the z-score was -0.201.
With `O=C(CSc1ccccc1)Nc1ccc(NC(=O)c2ccco2)cc1` the z-score was 0.0534.
For `CCCC(CCC)C(=O)Nc1cccc(C(=O)O)c1`, the z-score was -0.358.
In the case of `Cc1ccsc1/C=C/C1=Cc2c(sc(NC(=O)CSc3n[nH]c(N)n3)c2C#N)C(C)(C)C1`, the z-score is reported as -0.0316.
Work on `Cc1onc(C(=O)N2CCC(C(N)=O)CC2)c1-c1ccccc1Cl` yielded a z-score of 1.67.
Work on `Cc1nc2sc(C#N)c(N)c2c2c1CCCC2` yielded a z-score of -0.138.
With `O=C1c2ccccc2-c2nc3ccccc3nc21` the z-score was 0.224.
`O=C(Nc1ccccc1)c1ccc(N2CCN(c3ccccc3)CC2)c(S(=O)(=O)N2CCOCC2)c1` was tested, and the z-score was -0.142.
`CCOc1cc(/C=N\NC(=O)c2ccc(NC(=O)C(C)(C)C)cc2)ccc1OC(=O)c1ccc(OC)cc1` showed a z-score of -0.135.
`O=C(Cn1cncc1-c1ccc([N+](=O)[O-])cc1)Nc1ccccc1F` was tested, and the z-score was -0.169.
`Cc1nc2ccc(NC(=O)NCCO)cc2s1` gave a z-score of 0.213.
In the case of `Cc1ccc(C)c(C(=O)CN2C(=O)c3ccccc3S2(=O)=O)c1`, the z-score is reported as 0.179.
With `COC(=O)c1cc(-c2ccc(Br)cc2)n[nH]1` the z-score was 0.097.
`CCOC(=O)c1ccc2[nH]c3c(c2c1)CCCC3C(=O)OCC` (stereo not given) showed a z-score of -0.158.
`CCOc1cc(Cl)c(S(=O)(=O)NCc2ccccn2)cc1Cl` showed a z-score of 0.225.
With `Nc1cc(C(=O)OCC(=O)N2CCCC2)ccc1Cl` the z-score was -0.0441.
Molecule `COc1ccc(C(=O)CSc2nc3ccccc3n2CC(=O)c2ccccc2)cc1` has a z-score of -0.112.
For `Nc1nc(SCC(=O)NNc2c(Cl)cc(Cl)cc2Cl)n[nH]1`, the z-score was -0.396.
For `O=C(N/N=C/c1ccc[nH]1)c1cccc(Br)c1`, the z-score was 0.583.
Molecule `C=CCN1C(=NC(=O)CC)SC2CS(=O)(=O)CC21` (stereo not given) has a z-score of 0.204.
With `Cn1c(NCCCN2CCOCC2)nc2c1c(=O)n(Cc1ccc(Cl)c(Cl)c1)c(=O)n2C` the z-score was -0.0906.
For `Cc1ccc(-c2nn(C)c(=O)c3ccccc23)cc1CNC(=O)/C=C/c1ccccc1`, the z-score was -2.07.
With `COC(=O)c1c(NC(=O)Cc2cccs2)sc(C(=O)N2CCCCC2)c1C` the z-score was -1.56.
For `COc1ccc(C)cc1S(=O)(=O)N(CC(=O)Nc1cccc([N+](=O)[O-])c1)c1cc(C)cc(C)c1`, the z-score was -0.0777.
Work on `Cc1c(C(=O)NCc2ccccc2)oc2ccc(S(=O)(=O)N3CCC4(CC3)OCCO4)cc12` yielded a z-score of -0.293.
`COc1ccc(NC(=O)N2c3ccccc3CC2C)cc1OC` (stereo not given) gave a z-score of -0.233.
For `O=C(CCSCCc1ccccn1)Nc1ccccn1`, the z-score was -0.136.
In the case of `CCN(C1CCCCC1)S(=O)(=O)c1ccc(OC)c(C)c1`, the z-score is reported as -0.163.
Work on `COc1ccc(-c2nn(-c3ccccc3)cc2CNC(=O)c2cccc([N+](=O)[O-])c2)cc1` yielded a z-score of -0.207.
`C/C(CC(=O)Nc1ccc(Cl)cc1Cl)=N\NC(N)=S` was tested, and the z-score was -0.16.
In the case of `O=C(NCCN1CCN(Cc2ccccc2)CC1)c1cc2c(=O)[nH]c3ccccc3c2s1`, the z-score is reported as 2.15.
`O=C(OCc1cnc(Cl)s1)c1ccccc1Cl` showed a z-score of -0.386.
Molecule `CC(C)CN1C(=O)NC(NS(=O)(=O)c2ccc(N)cc2)(C(F)(F)F)C1=O` (stereo not given) has a z-score of 0.0251.
`COc1ccc([N+](=O)[O-])cc1C1NN=C(c2ccccc2O)S1` (stereo not given) was tested, and the z-score was 0.305.
Molecule `CCCCCCc1cc2cc(C(=O)NCc3ccccc3)c(=N)oc2cc1O` has a z-score of 0.891.
Molecule `O=C1c2ccccc2C(Nc2ccc(F)c(Cl)c2)N1c1ccccn1` (stereo not given) has a z-score of 1.06.
`Cc1cc(C)c2c(c1)/C(=N/NS(=O)(=O)c1ccc(Br)cc1)CCC2` was tested, and the z-score was -0.555.
Molecule `Cc1c(Nc2nc3ccccc3nc2NS(=O)(=O)c2cccs2)c(=O)n(-c2ccccc2)n1C` has a z-score of 0.66.
For `Cc1ccc(C)c(NC(=O)C2(C)CC3c4ccccc4C2c2ccccc23)c1` (stereo not given), the z-score was -0.0928.
`COc1ccc(NC(=O)CSc2nccc(C)n2)cc1` was tested, and the z-score was 0.549.
`Cc1ccc(-c2nnc(SCC#CCOC(=O)c3ccco3)o2)cc1` gave a z-score of -0.529.
Molecule `COc1ccccc1/C=N/NC(=O)C(=O)N1CCN(c2ccccc2OC)CC1` has a z-score of -0.405.
`COc1ccc(OCc2nc(N)nc(Nc3ccccc3)n2)cc1` was tested, and the z-score was active: 5.72.
In the case of `COc1ccc(S(=O)(=O)Cc2ccc(C(=O)NC3CC3)o2)cc1`, the z-score is reported as -0.451.
`CC(C)CNC(=O)CCc1c[nH]c2ccccc12` gave a z-score of -0.463.
Work on `CO/N=C/NC(=O)c1c(OC)ccnc1Oc1ccc(Cl)cc1` yielded a z-score of -0.0797.
In the case of `CC(=O)C1=C(O)C(=O)N(CCN2CCOCC2)C1c1ccc(N(C)C)cc1` (stereo not given), the z-score is reported as 0.474.
Work on `Cc1cc(C)cc(C(=O)N2CCCCCC2)c1` yielded a z-score of 0.076.
For `O=C(CCCN1C(=O)CCC1=O)Nc1ccc2c(c1)OCO2`, the z-score was 0.325.
Molecule `Cc1ccc(NC(=O)CSc2nc3ccccc3c3nc4ccccc4n23)cc1` has a z-score of -0.225.
`Cc1oncc1-c1cn2ccccc2n1` gave a z-score of 0.00287.
Work on `COc1ccc(Nc2ccccc2)c(C)c1` yielded a z-score of -0.328.
Work on `CCc1ccc(C(=O)COC(=O)C(Cc2ccccc2)NC(=O)C2CCC(C)CC2)cc1` (stereo not given) yielded a z-score of 0.18.
`CN1CC(c2ccccc2)C(c2ccc(Cl)cc2)=N1` (stereo not given) gave a z-score of -0.0948.
For `N#C/C(=C\c1cn(-c2ccccc2)nc1-c1ccccc1)S(=O)(=O)c1ccccc1`, the z-score was -0.452.
`c1ccc(-c2nnc(OCCN3CCOCC3)c3ccccc23)cc1` showed a z-score of 0.0453.
Work on `O=C(Nc1ncn[nH]1)c1ccc([N+](=O)[O-])cc1[N+](=O)[O-]` yielded a z-score of -0.0996.
`CC(C)CCNC(=O)NC(=O)COC(=O)c1cc(S(=O)(=O)N2CCOCC2)ccc1N1CCCCC1` was tested, and the z-score was -0.197.
Work on `CN(C(=O)c1ccccn1)c1nnc(-c2ccncc2)s1` yielded a z-score of -0.931.
`CC(=O)c1sc(N/N=C\c2ccc(C)cc2)nc1C` gave a z-score of -0.323.
`CCn1c(SCCOc2ccc(Cl)cc2)nnc1-c1cccs1` was tested, and the z-score was 1.3.
Work on `CCOc1cc(C2C(C(=O)c3ccc(C)cc3)=C(C(=O)OC)Nc3nnnn32)ccc1O` (stereo not given) yielded a z-score of -0.142.
`CCn1c(SCC(=O)N2CCCc3ccccc32)nnc1-c1c[nH]c2ccccc12` showed a z-score of -0.682.
Molecule `Cc1ccc(CN2CCN(Cc3ccccc3C(F)(F)F)CC2)cc1` has a z-score of -0.0837.
With `COc1ccccc1C(=O)Nc1nnc(-c2ccco2)s1` the z-score was -0.104.
For `CCn1c(CC(=O)Nc2ccc(C)cc2)nnc1SCC(=O)NCc1ccccc1`, the z-score was 0.00696.
Work on `CCOc1ccc(C)cc1-n1nc2ccccc2n1` yielded a z-score of -0.124.
With `O=C(Cc1ccccc1)NCC1CCCO1` (stereo not given) the z-score was 0.292.
With `N#CCC(=O)N/N=C1\CCCCC1C1CCCCC1` (stereo not given) the z-score was 0.419.
In the case of `O=C(C1CCCO1)N1CCN(C(=S)Nc2cccc(Cl)c2)CC1` (stereo not given), the z-score is reported as -0.344.
`Cc1cccc(N2CC34C=CC(O3)C(C(=O)O)C4C2=O)c1` (stereo not given) gave a z-score of -0.588.
Work on `O=C(O)CN(c1ccccn1)S(=O)(=O)c1ccccc1` yielded a z-score of 0.00416.
`Cc1cc(C)c2c(N)c3cccc(C)c3nc2n1` showed a z-score of 0.0736.
`Cc1sc(N2C(=O)C3C4C=CC(C4)C3C2=O)c(C#N)c1C` (stereo not given) showed a z-score of -0.106.
`Cc1ccc(S(=O)(=O)N(C)c2ccc(C(=O)O)cc2)cc1` gave a z-score of -0.249.
Work on `CCOC(=O)Cn1c(C)cc(=O)c2ccccc21` yielded a z-score of -0.138.
In the case of `CC(C)C(C(=O)NC(C)(C)C)N1C(=O)c2ccccc2C1=O` (stereo not given), the z-score is reported as -0.131.
With `O=[N+]([O-])c1ccc2nc(-[n+]3c(-c4ccccc4)cc(-c4ccccc4)cc3-c3ccccc3)[nH]c2c1` the z-score was -0.969.
For `CCNC(=O)/C(C#N)=C/c1c(N2CCN(Cc3ccc4c(c3)OCO4)CC2)nc2c(C)cccn2c1=O`, the z-score was -0.699.
`Cc1cc(C(=O)Nc2ccc(S(=O)(=O)Nc3onc(C)c3C)cc2)c(C)o1` showed a z-score of 0.0164.
`CC(C)=CC(=O)Nc1ccc2c(c1)OCO2` showed a z-score of -0.362.
With `C#CCSc1nnc(-c2cccc3ccccc23)o1` the z-score was active: -5.11.
`O=C(CSc1ccc(F)cc1)N1CCC(c2nc3ccccc3s2)CC1` was tested, and the z-score was -0.105.
Molecule `Nc1ccc(C(=O)OCC(=O)N2CCN(C(=O)c3ccco3)CC2)cc1[N+](=O)[O-]` has a z-score of -1.89.
Work on `CCCCS(=O)(=O)c1sc2nc(C)cc(C)c2c1N` yielded a z-score of 0.0692.
In the case of `CCOc1ccc(C(CC(=O)O)NC(=O)c2ccco2)cc1OC` (stereo not given), the z-score is reported as 0.387.
With `COC(=O)N/N=C(\C)c1ccc(Br)cc1` the z-score was 0.0678.
In the case of `COc1ccc(/C=C(/NC(=O)c2ccccc2)c2nc3ccccc3[nH]2)cc1OC`, the z-score is reported as -0.133.
`Cc1ccc2nc3c(cc2c1)c(NC(=O)C1CCCO1)nn3CC(C)C` (stereo not given) gave a z-score of -0.406.
`Cc1cc2c(cc1C)N(C(=O)CSC1=NCCS1)C(C)(C)c1ssc(=S)c1-2` gave a z-score of -0.0869.
Work on `N#C/C(=C(/O)c1ccco1)c1nc2ccccc2s1` yielded a z-score of -0.306.
`COc1cc(/C=C(\NC(C)=O)C(=O)NC(C)(C)C)ccc1OC(C)=O` was tested, and the z-score was -0.36.
Molecule `C=CCn1c(SCC(=O)Nc2ccc(C(=O)OCC)cc2)nnc1-c1sc(N)nc1C` has a z-score of -0.275.
`COc1ccccc1C(=O)Nc1ccc(C)cc1C(=O)c1ccccc1` gave a z-score of -0.242.
With `CCCCn1nnc(NC(=S)NC(=O)c2ccc(-c3cccc(Cl)c3Cl)o2)n1` the z-score was active: 4.59.
